For 24 compounds, survival results are on record in PubChem BioAssay AID463173 (ICCB-Longwood Screening Facility, Harvard Medical School, 2010).

Structures are written as SMILES. Screen size: about 52,000 compounds; about 4,300 (8.3%) were called active. Cut-off read from the data, not from the text of the source: active = survival mostly below about 52% (no sharp cut-off); inactive = mostly above about 56%. The list shows a part of the results.

The test has as its system DeltatarO mutant. Kind of test: growth inhibition of S. aureus wild type versus tarO mutant, primary screen, teichoic acid synthesis inhibitors, RN4220, OD600 (AID 463173). The settings on record: OD600, 18 h, stronger effect = lower value, screened at 18.75 µg/mL (by protocol).
Consider `CCOc1ccccc1NC(=O)CSc1nnc2[nH]c(=O)cc(C)n12`, for which the survival is inactive: 124%.

`COc1ccccc1-c1nc2n(n1)C(c1ccccc1Cl)C(C(=O)Nc1cccnc1)=C(C)N2` (centres undefined): the survival is inactive: 88%.

For `Cc1c(C(=O)N(Cc2ccccc2F)C2CCS(=O)(=O)C2)oc2ccccc12` (centres undefined), the survival is inactive: 84%.

Turning to `COc1ccc(-c2nnc(SCC(=O)Nc3cccc(C(F)(F)F)c3)s2)cc1`, the survival was inactive: 82%.

As to `COc1ccc(S(=O)(=O)NCC(c2cccs2)S(=O)(=O)c2ccccc2)cc1OC` (centres undefined), the survival is inactive: 105%.

Consider `CCOc1ccc(C(=O)c2cn(CC(=O)Nc3ccc(Cl)cc3)c3cc4c(cc3c2=O)OCO4)cc1`, for which the survival is inactive: 127%.

As for `Cc1nn(C)c2c1c(C(F)(F)F)cc(=O)n2C(C)C(=O)Nc1ccccc1F` (centres undefined), the survival was inactive: 80%.

Take `CC(=O)N1CCc2cc(Br)cc(S(=O)(=O)CCC(=O)N3CCN(c4ccc(F)cc4)CC3)c21`: the survival is inactive: 67%.

For the compound `Cc1cc(NNC(=S)S)nc(N)n1`, the survival was inactive: 107%.

As to `COc1ccc(NC(=O)c2c(NCc3cccs3)sc3c2CCC(C)C3)c(OC)c1` (centres undefined), the survival was inactive: 55%.

For `O=C(CSc1nnc(-c2ccccc2Cl)o1)N1CCCc2ccccc21`, the survival is active: 35%.

In the case of `COc1cccc(NS(=O)(=O)c2ccc3c(c2)n(C)c(=O)n3C)c1`, the survival was inactive: 46%.

Take `CN(C(=O)c1ccc2c(c1)N(Cc1cccc(Cl)c1)C(=O)c1ccccc1S2(=O)=O)C1CCCCC1`: the survival is inactive: 75%.

In the case of `CSc1cccc(NC(=O)C2CCN(c3nc4ccccc4[nH]3)CC2)c1`, the survival was inactive: 75%.

For the compound `Cc1ccc(Cn2c(SCc3ccc(C(=O)NC4CCCCC4)cc3)nc3ccncc32)cc1`, the survival was inactive: 71%.

Take `COCCNC(=O)c1cnc2sc(N3CCCCC3)nn2c1=O`: the survival was inactive: 76%.

Turning to `Cc1c(-c2nc(-c3ccccc3)no2)nnn1-c1ccc(F)c(Cl)c1`, the survival is inactive: 83%.

Regarding `CCc1ccc(NC(=O)Cn2c(=O)n(-c3ccc(Cl)c(Cl)c3)c(=O)c3c(C)c(C)sc32)cc1`, the survival is inactive: 97%.

On to `COc1ccc(Cl)c2sc(NC(=O)c3ccc(S(=O)(=O)N4CCOCC4)cc3)nc12`, for which the survival is inactive: 69%.

Regarding `Cc1ccc(CN2CCC(CNC(=O)c3cnn(-c4ccccc4Cl)c3C3CCN(C(=O)OC(C)(C)C)CC3)CC2)cc1`, the survival is inactive: 94%.

As to `COc1cc(/C=C/c2nc(C#N)c(N3CCN(C)CC3)o2)cc(OC)c1OC`, the survival is inactive: 73%.

Turning to `Cc1ccc(Nc2c(-c3c[nH]c4ccccc34)nc3ccccn23)cc1`, the survival was inactive: 114%.

Regarding `Cc1ccc2oc(=O)c3cnn(CC(=O)N4CCN(c5ccc(F)cc5)CC4)c3c2c1`, the survival is inactive: 106%.

With `CC(C)Oc1ccccc1-c1nc(SCC(=O)c2ccc(F)cc2)n[nH]1`, the survival was active: 40%.
